Data from the supplement of paper PMC10126150.
Sequences with one replicate were seen in a single cluster, so their values are uncertain.
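Note: ATP exposure 15 min at 22 °C before imaging.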

What follows are sequences tested on ATP (assay: switch fluorescence ratio, 500 uM ATP over buffer (Cy3 cluster intensity, sum of 5 cycles each) (fold (ratio)); higher = stronger signal-on switching upon ATP binding; sequences stand for … in TCGTCGGCAGCGTCAGATGTGTATAAGAGACAGTTTTTTTTTTTTTTTTTTTTTTTTT…TC). Settings: aptamer strand: ATP DNA aptamer (quencher-CACCTGGGGGAGTATTGCGGAGGAAGG + anchor), 100 nM annealed; ATP concentration: 500 uM; one replicate.
Method in brief: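 Between each of five buffer/ATP cycles, the flow-cell was stripped with NaOH and re-annealed. Each cycle imaged Cy3-labelled switching-strand clusters, annealed to 100 nM quencher-labelled ATP aptamer on a modified Illumina MiSeq flow-cell, first in selection buffer and then after 15 min with 500 uM ATP at 22 °C. The fluorescence ratio is summed target-cycle over summed buffer-cycle Cy3 intensity per cluster, averaged per switch-domain sequence, with clusters outside 100-1000 RFU excluded.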
With TTAGCGAAT the switch fluorescence ratio was 1.04. In the case of TTAGCGAGGG, the switch fluorescence ratio is reported as 1.17. In the case of TTAGGAGGAG, the switch fluorescence ratio is reported as 0.974. TTAGGAT gave a switch fluorescence ratio of 0.98. TTAGGGGCCA was tested, and the switch fluorescence ratio was 0.956. With TTAGGGGTTA the switch fluorescence ratio was 1.02. Work on TTAGGTCGTC yielded a switch fluorescence ratio of 1.02. In the case of TTAGGTTA, the switch fluorescence ratio is reported as 0.981. TTAGGTTTCC was tested, and the switch fluorescence ratio was 0.981. TTAGTACGTA showed a switch fluorescence ratio of 1.03. TTAGTAGTCA showed a switch fluorescence ratio of 0.989. In the case of TTAGTATCAG, the switch fluorescence ratio is reported as 1.02. With TTAGTCATCA the switch fluorescence ratio was 0.999. In the case of TTAGTCTCTC, the switch fluorescence ratio is reported as 1.01. In the case of TTAGTGCCCT, the switch fluorescence ratio is reported as 1.09. For TTAGTGCTCT, the switch fluorescence ratio was 0.99. For TTAGTGGTGC, the switch fluorescence ratio was 1. TTAGTGGTTA was tested, and the switch fluorescence ratio was 0.991. In the case of TTAGTGTTT, the switch fluorescence ratio is reported as 0.99. Work on TTAGTTCGGA yielded a switch fluorescence ratio of 0.939. For TTATAAGGAC, the switch fluorescence ratio was 1.05. In the case of TTATAAGTAC, the switch fluorescence ratio is reported as 1.42. For TTATAATGTC, the switch fluorescence ratio was 1.08. TTATACCGCG was tested, and the switch fluorescence ratio was 1.04. With TTATACGGC the switch fluorescence ratio was 1.07. Sequence TTATAGTGGA has a switch fluorescence ratio of 0.999. TTATATAACG was tested, and the switch fluorescence ratio was 1.02. TTATATAAGG showed a switch fluorescence ratio of 1.01. TTATATGAGC gave a switch fluorescence ratio of 1. TTATATGTAC was tested, and the switch fluorescence ratio was 1.1. TTATATTAA was tested, and the switch fluorescence ratio was 0.987. With TTATCCTGAC the switch fluorescence ratio was 2.03. TTATCGATCG showed a switch fluorescence ratio of 1. TTATCGGAAG was tested, and the switch fluorescence ratio was 0.912. TTATCGGTAG showed a switch fluorescence ratio of 0.998. TTATCGTATC was tested, and the switch fluorescence ratio was 1. Sequence TTATCTCAGC has a switch fluorescence ratio of 1.01. In the case of TTATGAACGT, the switch fluorescence ratio is reported as 0.929. TTATGATTG was tested, and the switch fluorescence ratio was 0.982. Work on TTATGCCATG yielded a switch fluorescence ratio of 0.982. TTATGCCGAC was tested, and the switch fluorescence ratio was 1.02. TTATGCCTCT gave a switch fluorescence ratio of 1. In the case of TTATGCGACG, the switch fluorescence ratio is reported as 0.958. TTATGCGATG was tested, and the switch fluorescence ratio was 0.959. Work on TTATGCTCTG yielded a switch fluorescence ratio of 1.01. TTATGGGATC gave a switch fluorescence ratio of 1.05. TTATGTAAGA was tested, and the switch fluorescence ratio was 0.948. TTATGTCACT showed a switch fluorescence ratio of 0.992. TTATTACCAT gave a switch fluorescence ratio of 1.03. Work on TTATTACTAT yielded a switch fluorescence ratio of 0.972. TTATTAGTTC showed a switch fluorescence ratio of 1.01. TTATTATCGT showed a switch fluorescence ratio of 1.02. TTATTATGAA was tested, and the switch fluorescence ratio was 1.02. Work on TTATTCAGAG yielded a switch fluorescence ratio of 1.05. For TTATTCCGTC, the switch fluorescence ratio was 1.05. With TTATTGCTAC the switch fluorescence ratio was 1.04. For TTATTGCTAT, the switch fluorescence ratio was 1.01. TTATTGGT showed a switch fluorescence ratio of 1.03. Work on TTATTTATGA yielded a switch fluorescence ratio of 1.01. TTATTTCCTT gave a switch fluorescence ratio of 1. Sequence TTATTTCTCC has a switch fluorescence ratio of 1.01. With TTATTTCTGA the switch fluorescence ratio was 1.01. With TTATTTGCAC the switch fluorescence ratio was 1.06. TTATTTTACG showed a switch fluorescence ratio of 1.01. With TTATTTTGCA the switch fluorescence ratio was 0.974. With TTATTTTGT the switch fluorescence ratio was 0.989. TTCAAATTGT showed a switch fluorescence ratio of 1.01. In the case of TTCAACAGTT, the switch fluorescence ratio is reported as 0.994. TTCAAGATGC was tested, and the switch fluorescence ratio was 1.38. TTCAAGCGTC gave a switch fluorescence ratio of 0.966. TTCAATATGA showed a switch fluorescence ratio of 1.03. For TTCAATTTTG, the switch fluorescence ratio was 1.02. With TTCACACAGC the switch fluorescence ratio was 1.09. Sequence TTCACAGTGT has a switch fluorescence ratio of 1.04. TTCACCCGGG was tested, and the switch fluorescence ratio was 1.04. TTCACCTTAA showed a switch fluorescence ratio of 1.07. Sequence TTCACGAGGG has a switch fluorescence ratio of 0.965. TTCACGAGTC was tested, and the switch fluorescence ratio was 1.07. Work on TTCACGGAAA yielded a switch fluorescence ratio of 1.06. Work on TTCACGGAC yielded a switch fluorescence ratio of 1.72. With TTCACGTACA the switch fluorescence ratio was 1.66. Sequence TTCACTAACT has a switch fluorescence ratio of 1.09. Work on TTCACTGCTG yielded a switch fluorescence ratio of 1.05. In the case of TTCAGAAACG, the switch fluorescence ratio is reported as 0.996. TTCAGAAGAT gave a switch fluorescence ratio of 0.992. With TTCAGACCCT the switch fluorescence ratio was 1.01. In the case of TTCAGATTGA, the switch fluorescence ratio is reported as 0.995. TTCAGCCCTC was tested, and the switch fluorescence ratio was 1.07. Sequence TTCAGCTCAT has a switch fluorescence ratio of 0.986. TTCAGCTTTA gave a switch fluorescence ratio of 0.981. TTCAGGCGCA was tested, and the switch fluorescence ratio was 1.14. TTCAGGGAAA was tested, and the switch fluorescence ratio was 1.01. TTCAGGGATT was tested, and the switch fluorescence ratio was 0.974. For TTCAGGGCGG, the switch fluorescence ratio was 0.973. With TTCAGGGGAA the switch fluorescence ratio was 1.06. TTCAGGTTAA gave a switch fluorescence ratio of 1.01. Sequence TTCAGTACTG has a switch fluorescence ratio of 1.03. Sequence TTCAGTCACG has a switch fluorescence ratio of 1.01. With TTCAGTCCTG the switch fluorescence ratio was 1. With TTCAGTCGGC the switch fluorescence ratio was 0.967. In the case of TTCAGTGCCT, the switch fluorescence ratio is reported as 0.962. With TTCAGTTGAA the switch fluorescence ratio was 1.01. For TTCATACGTG, the switch fluorescence ratio was 0.957. Work on TTCATAGAGG yielded a switch fluorescence ratio of 1.01. For TTCATATAT, the switch fluorescence ratio was 1.05. For TTCATCCTAG, the switch fluorescence ratio was 1.06. Work on TTCATCTGAC yielded a switch fluorescence ratio of 1.11. TTCATGAT gave a switch fluorescence ratio of 1.03. TTCATGGCGG was tested, and the switch fluorescence ratio was 1.02. TTCATGTAAT was tested, and the switch fluorescence ratio was 1.05. Work on TTCATGTTTT yielded a switch fluorescence ratio of 1.01. Sequence TTCATTAAGC has a switch fluorescence ratio of 1.04. In the case of TTCATTACAC, the switch fluorescence ratio is reported as 0.984. Work on TTCATTCCAG yielded a switch fluorescence ratio of 1. Sequence TTCATTGAAC has a switch fluorescence ratio of 1.05. For TTCATTGTCT, the switch fluorescence ratio was 0.949. TTCATTTACT showed a switch fluorescence ratio of 1.06. With TTCATTTGAT the switch fluorescence ratio was 0.952. In the case of TTCATTTGGA, the switch fluorescence ratio is reported as 0.985. With TTCCAACATC the switch fluorescence ratio was 1.12. Sequence TTCCAAGTG has a switch fluorescence ratio of 1.04. For TTCCAATTTA, the switch fluorescence ratio was 1.03. TTCCACAGAG gave a switch fluorescence ratio of 1.31. With TTCCACATGG the switch fluorescence ratio was 1.12. Sequence TTCCAGACAG has a switch fluorescence ratio of 0.989. With TTCCAGAGCG the switch fluorescence ratio was 1.57. Sequence TTCCAGCTAA has a switch fluorescence ratio of 1.07. TTCCAGGCCA gave a switch fluorescence ratio of 1.01. TTCCAGTGTG was tested, and the switch fluorescence ratio was 1.89. With TTCCATGGAG the switch fluorescence ratio was 0.977. Sequence TTCCCAGTCC has a switch fluorescence ratio of 1.04. Sequence TTCCCCGACA has a switch fluorescence ratio of 1.57. Sequence TTCCCCGGGG has a switch fluorescence ratio of 1.63. Work on TTCCCGATTA yielded a switch fluorescence ratio of 1.05. TTCCCTGGCG showed a switch fluorescence ratio of 1. TTCCCTGTAG showed a switch fluorescence ratio of 1.03. With TTCCCTTGAA the switch fluorescence ratio was 1.02. Work on TTCCGCGGGG yielded a switch fluorescence ratio of 1.11. In the case of TTCCGGAAA, the switch fluorescence ratio is reported as 0.968. In the case of TTCCGGCTTG, the switch fluorescence ratio is reported as 1.02. With TTCCGGGCAT the switch fluorescence ratio was 2.7. TTCCGTGTTT gave a switch fluorescence ratio of 1.12. Sequence TTCCGTTACC has a switch fluorescence ratio of 1.21. Work on TTCCTACTTT yielded a switch fluorescence ratio of 1.01. In the case of TTCCTTACGC, the switch fluorescence ratio is reported as 1.27. With TTCCTTGAGG the switch fluorescence ratio was 0.975. TTCCTTTATT gave a switch fluorescence ratio of 1.05. For TTCCTTTTG, the switch fluorescence ratio was 0.967. In the case of TTCGAAAATA, the switch fluorescence ratio is reported as 0.98. TTCGAAATAA showed a switch fluorescence ratio of 1.05. TTCGAAGATC gave a switch fluorescence ratio of 1.01. Sequence TTCGAAGTCA has a switch fluorescence ratio of 0.965. Work on TTCGAAGTG yielded a switch fluorescence ratio of 0.972. TTCGACATAT showed a switch fluorescence ratio of 0.99. In the case of TTCGACTACA, the switch fluorescence ratio is reported as 0.993. With TTCGAGCAC the switch fluorescence ratio was 1.08. Work on TTCGAGCCTT yielded a switch fluorescence ratio of 1.06. TTCGAGGGAT showed a switch fluorescence ratio of 1.01. TTCGAGTTCA gave a switch fluorescence ratio of 1.01. TTCGATCCGG was tested, and the switch fluorescence ratio was 0.939. Work on TTCGATGAAG yielded a switch fluorescence ratio of 0.963. Sequence TTCGATTA has a switch fluorescence ratio of 0.992. For TTCGCCCAGG, the switch fluorescence ratio was 6.92. In the case of TTCGCCCCTG, the switch fluorescence ratio is reported as 0.999. In the case of TTCGCGCTA, the switch fluorescence ratio is reported as 1.07. TTCGGAATGA was tested, and the switch fluorescence ratio was 1.15. Work on TTCGGACTCG yielded a switch fluorescence ratio of 1.02. TTCGGAGGCG was tested, and the switch fluorescence ratio was 0.972. In the case of TTCGGCCAGC, the switch fluorescence ratio is reported as 0.993. TTCGGCTGAA showed a switch fluorescence ratio of 0.973. TTCGGGCCTA was tested, and the switch fluorescence ratio was 1.01. Sequence TTCGGGTGCA has a switch fluorescence ratio of 1.01. Work on TTCGGTGATT yielded a switch fluorescence ratio of 0.986. For TTCGGTTAGG, the switch fluorescence ratio was 1.01. With TTCGTAATTT the switch fluorescence ratio was 1.08. Sequence TTCGTACGGA has a switch fluorescence ratio of 0.969. Work on TTCGTATCGT yielded a switch fluorescence ratio of 1.01. In the case of TTCGTCACTG, the switch fluorescence ratio is reported as 0.922. With TTCGTCCTGT the switch fluorescence ratio was 0.999. TTCGTCGGAC gave a switch fluorescence ratio of 1.09. Sequence TTCGTCTCAG has a switch fluorescence ratio of 0.995. TTCGTGGGAG showed a switch fluorescence ratio of 0.988. TTCGTTACCG gave a switch fluorescence ratio of 1. TTCGTTGGG was tested, and the switch fluorescence ratio was 0.995. Sequence TTCGTTGTTG has a switch fluorescence ratio of 0.997. For TTCGTTTT, the switch fluorescence ratio was 1.04. Work on TTCGTTTTCC yielded a switch fluorescence ratio of 1.15. TTCTAAGGT was tested, and the switch fluorescence ratio was 1.06. TTCTAATCG gave a switch fluorescence ratio of 0.939. In the case of TTCTACGCAC, the switch fluorescence ratio is reported as 1.63. With TTCTAGTCCC the switch fluorescence ratio was 1.01. Work on TTCTATGTAG yielded a switch fluorescence ratio of 1.01. In the case of TTCTCAGGTT, the switch fluorescence ratio is reported as 1.03. Sequence TTCTCCAGAT has a switch fluorescence ratio of 1.09. Work on TTCTCCTTGA yielded a switch fluorescence ratio of 1.03. With TTCTCTCCTG the switch fluorescence ratio was 1.02. For TTCTGACTTG, the switch fluorescence ratio was 1.01. Work on TTCTGGTCGC yielded a switch fluorescence ratio of 1.02. TTCTGTCTTA was tested, and the switch fluorescence ratio was 0.995. Sequence TTCTGTGCA has a switch fluorescence ratio of 1.01. For TTCTTATGGC, the switch fluorescence ratio was 1.05.
